Assay results published in patent US20230255906A1, “Targeting Serpin B9 in Cancer” (The Brigham and Women`s Hospital, Inc., priority 2020, published 2023).
Several values for one entry are separate records, joined by “and”; a condition that tells them apart may be missing. Identical values can stand only once. At least one read-out could not be matched to a standard name with certainty.

test system: B16 melanoma cells; assay: Caspase-3 activity assay (EnzChek Caspase-3 Assay Kit), caspase-3 induction in tumor cells; type: cell-based, mouse; details: not given
Excerpt: The EnzChek® Caspase-3 Assay Kit was used to detect apoptosis by assaying for increases in caspase-3 activities. The basis for the assay was rhodamine 110 bis-(N-CBZ-L-aspartyl-L-glutamyl-L-valyl-L-aspartic acid amide) (Z-DEVD-R110). This substrate is a bisamide derivative of rhodamine 110 (R110) containing DEVD peptides covalently linked to each of R110's amino groups, thereby suppressing the dye's visible absorption and its fluorescence. Upon enzymatic cleavage, the nonfluorescent bisamide substrate is converted in a two-step process first to a fluorescent monoamide and then to an even more fluorescent R110.
At least 1×10^6 cells of the lysate were used for each reaction. B16 cells were treated with compounds to induce apoptosis. A negative control was prepared by incubating cells in the absence of compounds. The cells were incubated with compounds for 24 hrs and washed in PBS. Each cell sample or control was resuspended in 50 μL of the 1×cell lysis buffer. Cells were lysed by incubating on ice for 30 minutes, and the lysed cells were centrifuged to pellet the cellular debris. 50 μL of the supernatant was transferred from each sample to individual microplate wells. 50 μL of the 1× cell lysis buffer was used as a no-enzyme control to determine the background fluorescence of the substrate. 50 μL of the 2×substrate working solution was added to each sample and control. The microplate was covered, and the samples were incubated at room temperature for approximately 30 minutes. The fluorescence was measured by a fluorescence microplate reader (excitation/emission ˜496/520 nm) using excitation and emission filters.
The ability of this small molecule inhibitor to inhibit intracellular Sb9 was then evaluated. As a marker for cell penetration, the induction of caspase-3 activity in B16 melanoma cells as a surrogate marker for increased GrB activity was measured.
The induction of caspase-3 activity in B16 melanoma cells as a surrogate marker for increased GrB activity was also measured for other small molecules (compounds of Formulas (V) and (VI) as described herein).

For `Cc1cc(CN(C)C(=O)c2ccc3oc(-c4cccc(F)c4)nc3c2)no1` [2-(3-fluorophenyl)-N-methyl-N-[(5-methylisoxazol-3-yl)methyl]-1,3-benzoxazole-5-carboxamide], the “Ratio of caspase-3 activity to Formula (III)” value was 0.1695 and 0.1066.
For `O=C(c1ccc2oc(-c3cccc(F)c3)nc2c1)N1C[C@@H]2CCC[C@H]1C2` (relative stereo) [5-[(1R*,5S*)-6-azabicyclo[3.2.1]oct-6-ylcarbonyl]-2-(3-fluorophenyl)-1,3-benzoxazole], the “Ratio of caspase-3 activity to Formula (III)” value was 0.143 and 0.2106.

same assay, conditions: control 3,4-dihydroxybenzoic acid

Compared with `COCCCNC(=O)c1cc(OC)c(OC)cc1Br` [2-bromo-4,5-dimethoxy-N-(3-methoxypropyl)benzamide], `COCCCNC(=O)c1cc(OC)c(O)c(OC)c1` [4-hydroxy-3,5-dimethoxy-N-(3-methoxypropyl)benzamide] is higher in “Caspase-3 induction, Normalized to Control (%)” value: −56.759% for the first, 135.3558% for the second.

Compared with `Cc1nc2c(C(=O)NC3CCCC3)cccc2o1` [N-cyclopentyl-2-methyl-1,3-benzoxazole-4-carboxamide], `CN(C)c1nc2cccc(C(=O)NC3CCCC3)c2o1` [N-cyclopentyl-2-(dimethylamino)-1,3-benzoxazole-7-carboxamide] is lower in “Caspase-3 induction, Normalized to Control (%)” value: 114.7357% for the first, 61.1% for the second.

Going from `Cc1nc2c(C(=O)NCc3ccccc3)cccc2o1` [N-benzyl-2-methyl-1,3-benzoxazole-4-carboxamide] to `CN(C)c1nc2c(C(=O)NCc3ccccc3)cccc2o1` [N-benzyl-2-(dimethylamino)-1,3-benzoxazole-4-carboxamide], the “Caspase-3 induction, Normalized to Control (%)” value rises from 65.7% to 377.5569%.

First: COc1cc(Br)c(C(=O)N2CCCC2)cc1OC [1-(2-bromo-4,5-dimethoxybenzoyl)pyrrolidine]
Second: COc1cc(Br)c(C(=O)NCC2CCOCC2)cc1OC [2-bromo-4,5-dimethoxy-N-[(oxan-4-yl)methyl]benzamide]
The “Caspase-3 induction, Normalized to Control (%)” value of the first is higher: 250.9611% for the first, 73.6002% for the second.

First: O=C(c1ccc2nc(C(F)(F)F)oc2c1)N1CCCC1 [6-(pyrrolidine-1-carbonyl)-2-(trifluoromethyl)-1,3-benzoxazole]
Second: O=C(c1ccc2nc(C(F)(F)C(F)(F)F)oc2c1)N1CCCC1 [2-(1,1,2,2,2-pentafluoroethyl)-6-(pyrrolidine-1-carbonyl)-1,3-benzoxazole]
The “Caspase-3 induction, Normalized to Control (%)” value of the first is lower: −11.9048% for the first, 82.82% for the second.

First: COCCCNC(=O)c1ccc2nc(C3CCCO3)oc2c1 (stereo not drawn) [N-(3-methoxypropyl)-2-(oxolan-2-yl)-1,3-benzoxazole-6-carboxamide]
Second: COCCCNC(=O)c1ccc2nc(C3CC3)oc2c1 [2-cyclopropyl-N-(3-methoxypropyl)-1,3-benzoxazole-6-carboxamide]
The “Caspase-3 induction, Normalized to Control (%)” value of the first is lower: −10.7722% for the first, 182.1229% for the second.

Going from `O=C(c1cc2c(cc1O)OCO2)N1CCCC1` [6-(pyrrolidine-1-carbonyl)-2H-1,3-benzodioxol-5-ol] to `O=C(NC1CCCC1)c1cc2c(cc1O)OCO2` [N-cyclopentyl-6-hydroxy-2H-1,3-benzodioxole-5-carboxamide], the “Caspase-3 induction, Normalized to Control (%)” value falls from 97.82% to 18.15%.

Going from `CCOc1ccc(C(=O)NCC2CCOC2)cc1O` (stereo not drawn) [4-ethoxy-3-hydroxy-N-[(oxolan-3-yl)methyl]benzamide] to `CCOc1ccc(C(=O)NCC(C)C)cc1O` [4-ethoxy-3-hydroxy-N-(2-methylpropyl)benzamide], the “Caspase-3 induction, Normalized to Control (%)” value rises from 131.3161% to 197.0696%.

Going from `CN(C)CCNC(=O)c1cc2c(cc1O)OCO2` [N-[2-(dimethylamino)ethyl]-6-hydroxy-2H-1,3-benzodioxole-5-carboxamide] to `COCCCNC(=O)c1cc2c(cc1O)OCO2` [6-hydroxy-N-(3-methoxypropyl)-2H-1,3-benzodioxole-5-carboxamide], the “Caspase-3 induction, Normalized to Control (%)” value falls from 215.2015% to 78.98%.

First: CCN(C)C(=O)c1ccc2nc(S)oc2c1 [N-ethyl-N-methyl-2-sulfanyl-1,3-benzoxazole-6-carboxamide]
Second: CCN(C)C(=O)c1ccc2oc(C)nc2c1 [N-ethyl-N,2-dimethyl-1,3-benzoxazole-5-carboxamide]
The “Caspase-3 induction, Normalized to Control (%)” value of the first is higher: 177.8521% for the first, 1.699% for the second.

Going from `Cc1cc(O)c(O)cc1C(=O)N1CCCC1` [4-methyl-5-(pyrrolidine-1-carbonyl)benzene-1,2-diol] to `CN(C)c1nc2cccc(C(=O)N3CCCC3)c2o1` [N,N-dimethyl-7-(pyrrolidine-1-carbonyl)-1,3-benzoxazol-2-amine], the “Caspase-3 induction, Normalized to Control (%)” value rises from 83.33% to 143.2496%.

Compared with `CCN(C)C(=O)c1cccc2nc(N(C)C)oc12` [2-(dimethylamino)-N-ethyl-N-methyl-1,3-benzoxazole-7-carboxamide], `COCCCNC(=O)c1cccc2nc(N(C)C)oc12` [2-(dimethylamino)-N-(3-methoxypropyl)-1,3-benzoxazole-7-carboxamide] is lower in “Caspase-3 induction, Normalized to Control (%)” value: 112.5589% for the first, 78.97% for the second.

Compared with `O=C(NC1CCCC1)c1ccc2nc(S)oc2c1` [N-cyclopentyl-2-sulfanyl-1,3-benzoxazole-6-carboxamide], `O=C(c1ccc2nc(S)oc2c1)N1CCCC1` [6-(pyrrolidine-1-carbonyl)-1,3-benzoxazole-2-thiol] is higher in “Caspase-3 induction, Normalized to Control (%)” value: −44.6848% for the first, 113.3883% for the second.

Compared with `CCN(C)C(=O)c1ccc2nc(C3CCCO3)oc2c1` (stereo not drawn) [N-ethyl-N-methyl-2-(oxolan-2-yl)-1,3-benzoxazole-6-carboxamide], `O=C(NCc1ccccc1)c1ccc2nc(C3CCCO3)oc2c1` (stereo not drawn) [N-benzyl-2-(oxolan-2-yl)-1,3-benzoxazole-6-carboxamide] is lower in “Caspase-3 induction, Normalized to Control (%)” value: 220.9670% for the first, 101.3501% for the second.

Compared with `O=C(Cc1ccc2ocnc2c1)N1CCCC1` [2-(1,3-benzoxazol-5-yl)-1-(pyrrolidin-1-yl)ethan-1-one], `O=C(Cc1ccc2ocnc2c1)NCc1ccccc1` [2-(1,3-benzoxazol-5-yl)-N-benzylacetamide] is lower in “Caspase-3 induction, Normalized to Control (%)” value: 205.2680% for the first, 101.7792% for the second.

Compared with `O=C(NCc1ccccc1)c1ccc2nc(S)oc2c1` [N-benzyl-2-sulfanyl-1,3-benzoxazole-6-carboxamide], `O=C(NCc1ccccc1)c1ccc2nc(C3CC3)oc2c1` [N-benzyl-2-cyclopropyl-1,3-benzoxazole-6-carboxamide] is lower in “Caspase-3 induction, Normalized to Control (%)” value: 143.7053% for the first, 106.7452% for the second.

First: CC(C)CNC(=O)c1cc2c(cc1O)OCO2 [6-hydroxy-N-(2-methylpropyl)-2H-1,3-benzodioxole-5-carboxamide]
Second: O=C(NCc1ccccc1)c1cc2c(cc1O)OCO2 [N-benzyl-6-hydroxy-2H-1,3-benzodioxole-5-carboxamide]
The “Caspase-3 induction, Normalized to Control (%)” value of the first is lower: 103.7132% for the first, 168.4773% for the second.

Compared with `O=C(c1ccc2nc(C3CCCCC3)oc2c1)N1CCCC1` [2-cyclohexyl-6-(pyrrolidine-1-carbonyl)-1,3-benzoxazole], `O=C(c1ccc2nc(C3CC3)oc2c1)N1CCCC1` [2-cyclopropyl-6-(pyrrolidine-1-carbonyl)-1,3-benzoxazole] is higher in “Caspase-3 induction, Normalized to Control (%)” value: 116.5411% for the first, 123.5871% for the second.

Compared with `COc1cc(C(=O)NCC2CCOCC2)ccc1OCCC(C)C` [3-methoxy-4-(3-methylbutoxy)-N-[(oxan-4-yl)methyl]benzamide], `COc1cc(C(=O)NCC2CCCC2)ccc1OCCC(C)C` [N-(cyclopentylmethyl)-3-methoxy-4-(3-methylbutoxy)benzamide] is lower in “Caspase-3 induction, Normalized to Control (%)” value: 101.9288% for the first, 53.7% for the second.

Compared with `COCCCNC(=O)c1cc(O)c(O)cc1C` [4,5-dihydroxy-N-(3-methoxypropyl)-2-methylbenzamide], `CCOc1ccc(C(=O)NCCCOC)cc1O` [4-ethoxy-3-hydroxy-N-(3-methoxypropyl)benzamide] is higher in “Caspase-3 induction, Normalized to Control (%)” value: 36.3423% for the first, 98.1214% for the second.

Compared with `CCN(C)C(=O)c1ccc2nc(-c3cc(Cl)cc(Cl)c3)oc2c1` [2-(3,5-dichlorophenyl)-N-ethyl-N-methyl-1,3-benzoxazole-6-carboxamide], `COCCCNC(=O)c1cccc2oc(C)nc12` [N-(3-methoxypropyl)-2-methyl-1,3-benzoxazole-4-carboxamide] is higher in “Caspase-3 induction, Normalized to Control (%)” value: −55.8082% for the first, −8.849% for the second.

Compared with `CCOc1ccc(C(=O)NCc2ccccc2)cc1O` [N-benzyl-4-ethoxy-3-hydroxybenzamide], `COc1cc(C(=O)NCC2(C)CC2)cc(OC)c1O` [4-hydroxy-3,5-dimethoxy-N-[(1-methylcyclopropyl)methyl]benzamide] is lower in “Caspase-3 induction, Normalized to Control (%)” value: 252.7062% for the first, 194.4499% for the second.

Compared with `COc1cc(Br)c(C(=O)NCC(C)C)cc1OC` [2-bromo-4,5-dimethoxy-N-(2-methylpropyl)benzamide], `COc1cc(Br)c(C(=O)NCC2CCOC2)cc1OC` (stereo not drawn) [2-bromo-4,5-dimethoxy-N-[(oxolan-3-yl)methyl]benzamide] is higher in “Caspase-3 induction, Normalized to Control (%)” value: 26.4% for the first, 189.8773% for the second.
